# From the supplement of paper PMC4166925
# ± gives the standard deviation of the averaged measurements. Whole data set: some 33,000 sequences, median “E-score (dimensionless, -0.5 to 0.5)” near -0.049, cut for the highest 2% near 0.37. Some of the results follow.
# System: T1, PmTbr T-box DNA-binding domain (GST fusion)
# T1 sequence: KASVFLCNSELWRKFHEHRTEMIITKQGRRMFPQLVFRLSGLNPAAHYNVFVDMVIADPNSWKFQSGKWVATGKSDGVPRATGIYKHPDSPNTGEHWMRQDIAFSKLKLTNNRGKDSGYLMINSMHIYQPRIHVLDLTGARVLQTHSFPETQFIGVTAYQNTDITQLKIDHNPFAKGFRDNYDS
# Assay: PBM E-score of 8-mer (E-score (dimensionless, -0.5 to 0.5)); Tbr is Tbrain of the sea star Patiria miniata (Pm) or the sea urchin Strongylocentrotus purpuratus (Sp); higher = stronger binding preference; most listed sequences are background and not binding sites
# Details: the construct has about 5 more residues each side
# Summary of the method: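 Using the Universal PBM Analysis Suite, every ungapped 8-mer received an enrichment E-score averaged over duplicate arrays. Probe intensities came from double-stranded Universal Agilent oligonucleotide arrays incubated with 200 nM GST-fused Tbr T-box DNA-binding domain in PBS (pH 7.5). That protein was expressed in BL21 E. coli at 20 °C and purified by glutathione affinity chromatography.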
row,Sequence,PBM E-score of 8-mer
1,CAGCGAAA,0.0314 ± 0.045
2,ATTAAGGC,-0.0488 ± 0.00077
3,CACTTTAC,0.274 ± 0.067
4,CTAATCAA,-0.0277 ± 0.017
5,CGTCTAAC,-0.0253 ± 0.036
6,AGGACGCC,-0.181 ± 0.04
7,ATGGGGTG,0.239 ± 0.043
8,GGTTACGA,-0.0977 ± 0.019
9,GTGGCCTA,-0.13 ± 0.028
10,CCCTTTCA,-0.107 ± 0.025
11,CTCTTCCA,-0.318 ± 0.01
12,ACATTATA,0.0324 ± 0.028
13,GCTAATAC,0.00914 ± 0.044
14,CACGGGGA,-0.163 ± 0.026
15,ATTACAAG,-0.0219 ± 0.11
16,ATGAATCA,-0.129 ± 0.0053
17,GACAAGTC,0.198 ± 0.024
18,TTGATAAA,-0.0386 ± 0.1
19,ATAACGGG,0.109 ± 0.011
20,CCGTATCA,-0.114 ± 0.048
21,GGGGCAAA,-0.0367 ± 0.074
22,GCCGAAGA,-0.194 ± 0.017
23,ACTGCAAC,-0.0288 ± 0.014
24,GCCTAGCA,-0.00521 ± 0.096
25,AAATGCCT,-0.0834 ± 0.0012
26,GACATGTA,0.108 ± 0.023
27,CATCTAAA,-0.151 ± 0.083
28,AATATCCT,-0.296 ± 0.02

row,Sequence,PBM E-score of 8-mer
1,ATCCGGTC,-0.099 ± 0.056
2,GTCCATAA,-0.285 ± 0.024
3,CCGGTCAG,-0.188 ± 0.096
4,ACTAGGTG,0.425 ± 0.012
5,AGCGCCCA,0.1023 ± 0.00096
6,GAAGTGAA,0.219 ± 0.011
7,GTCCGCTA,0.0554 ± 0.075
8,ATTAGGTA,-0.131 ± 0.0089
9,GCGCCGCA,0.209 ± 0.0044
10,ATCTTACC,-0.327 ± 0.021
11,GCATAGGA,-0.313 ± 0.025
12,ATCTCCCA,-0.115 ± 0.057
13,GCGCATAA,-0.0553 ± 0.0062
14,CAGAGTAC,-0.15 ± 0.026
15,ACGTCTTA,0.0321 ± 0.018
16,AGAATCTG,-0.0493 ± 0.0097
17,GCTAAAAA,0.169 ± 0.18
18,CACGCATA,0.126 ± 0.0089
19,CCGCGGCC,-0.24 ± 0.01
20,CGCTGCCG,0.0947 ± 0.04
21,TAACTAAA,-0.0805 ± 0.0067
22,GACGGGCC,-0.175 ± 0.03
23,TGCCTAAA,0.0625 ± 0.03
24,CAACGCTG,0.117 ± 0.063
25,AGCGTTTA,-0.0653 ± 0.017
26,AGTGCTCC,-0.152 ± 0.1
27,AACCGATT,-0.0639 ± 0.011
